Measured values as given in PubChem BioAssay AID485364 (National Center for Advancing Translational Sciences (NCATS), 2010).
Among all 360,000 compounds or so, about 11,000 (3.1%) were called active. This list was built around the results that the source calls inconclusive (neither active nor inactive); the mix of calls is not that of the screen. Calls come from the whole dose curve; as a rule, active = well fitted inhibition curve with a large enough effect; inconclusive = small, poorly fitted or top-dose-only effect; inactive = no such curve, though single readings can be large or run the other way. No potency is given beside an inconclusive call; the fits are too rough.

These compounds were tested against Schistosoma mansoni thioredoxin glutathione reductase (TGR) (UniProt Q962Y6) (assay: qHTS Assay for the Inhibitors of Schistosoma Mansoni Peroxiredoxins). Details: purified TGR, DTNB reduction, TNB absorbance 405 nm; series mostly up to 114 µM.
How it was run: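 TGR 20 nM + NADPH 100 uM (dispensed conc.), cpd preinc 15 min RT; start with NADPH (500 uM addition) then DTNB (15 mM addition). Kinetic TNB absorbance, 405 nm filter. Four-parameter Hill fit across titration.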
Note: nearly all actives have a fitted effect of over 60% in size.
Potency is the fitted concentration of half-maximal effect; tags give direction and shape of the fitted curve.

Q: `Cc1cccc(C(=O)Nc2ccc(C(=O)/C=C/c3ccncc3)cc2)c1` was tested. Which Potency did it give?
A: inconclusive [inhibitor, full curve, poor fit]

Q: Which Potency does the source give for `O=C(NC1CCCCC1)c1cc2cc(Br)ccc2o1` here?
A: inconclusive [inhibitor, single point]

Q: Which Potency does the source give for `Cc1ccc(C(=O)NNC(=O)C2CCN(S(=O)(=O)c3ccc(C)cc3)CC2)cc1` here?
A: inactive

Q: `CCN1CCOC(=O)C1CC(=O)Nc1ccc(C)c(Cl)c1` (stereo not drawn) was tested. Which Potency did it give?
A: active: 11.2 µM

Q: How did the Potency turn out when `CC(=O)c1cccc(NC(=S)Nc2ccc(F)cc2)c1` was run?
A: inconclusive [inhibitor, full curve]

Q: For `CCOC(=O)C(NC(=O)c1ccccc1)=C1C=C(C)OC(C)=C1`, which Potency is on record?
A: inconclusive [inhibitor, partial curve]

Q: How did the Potency turn out when `N#Cc1cnn(-c2ccccc2)c1NC(=O)c1ccccc1F` was run?
A: inconclusive [inhibitor, single point]

Q: How did the Potency turn out when `Cc1ccccc1CSCCNC(=O)C1CCN(S(=O)(=O)Cc2ccccc2)CC1` was run?
A: inconclusive [inhibitor, partial curve]

Q: Which Potency does the source give for `COc1ccc(/C=N/NC(=O)CNC(=O)/C=C/c2ccco2)cc1OC` here?
A: active: 25.1 µM

Q: `Cc1ccc(C2c3c(oc4ccc(Cl)cc4c3=O)C(=O)N2CCCN2CCOCC2)o1` (stereo not drawn) was tested. Which Potency did it give?
A: inconclusive [inhibitor, single point]

Q: `Cc1ccc(-n2c(O)c(C=Nc3ccccc3N)c(=O)[nH]c2=O)cc1C` was tested. Which Potency did it give?
A: inconclusive [inhibitor, partial curve]

Q: Which Potency does the source give for `O=C(Oc1c(Cl)cc(Cl)c2cccnc12)c1cccc([N+](=O)[O-])c1` here?
A: inconclusive [inhibitor, partial curve]

Q: `CC(NC(=O)C(C)N1C(=O)c2ccccc2C1=O)c1ccccc1` (stereo not drawn) was tested. Which Potency did it give?
A: inconclusive [inhibitor, partial curve, poor fit]

Q: For `O=C(C[n+]1ccc(CCSc2ccc(F)cc2)cc1)c1ccccc1`, which Potency is on record?
A: inconclusive [inhibitor, full curve]

Q: For `COc1ccc(NC(=O)Nc2c(SC)nsc2SC)cc1`, which Potency is on record?
A: inconclusive [inhibitor, single point]

Q: How did the Potency turn out when `S=C(NCCCN1CCOCC1)Nc1ccc(Cl)cc1Cl` was run?
A: inconclusive [inhibitor, partial curve]

Q: How did the Potency turn out when `Cc1cccc(C(=O)NNC(=O)/C=C/C(=O)O)c1` was run?
A: inconclusive [inhibitor, full curve, poor fit]

Q: With `Cc1ccccc1C(=O)Nc1ccc(S(=O)(=O)N2CCC(c3nc4ccccc4s3)CC2)cc1` as the compound, how does the Potency read?
A: inactive

Q: `COc1ccc(S(=O)(=O)N2CCCCC2)cc1NC(=O)CN(Cc1ccco1)Cc1ccco1` was tested. Which Potency did it give?
A: inconclusive [inhibitor, partial curve]

Q: For `CCOC(=O)c1cc2c(C)n(-c3ccc(C)cc3)c(C)c2ccc1=O`, which Potency is on record?
A: inconclusive [inhibitor, partial curve]

Q: `NC(=O)c1ccc[n+]([C@H]2O[C@@H](COP(=O)([O-])OP(=O)(O)OC[C@H]3O[C@@H](n4cnc5c(N)ncnc54)[C@H](O)[C@@H]3O)[C@H](O)[C@@H]2O)c1` was tested. Which Potency did it give?
A: inconclusive [inhibitor, partial curve]

Q: With `Cc1ccc(/C=C2\C(=O)NC(=S)N(c3cccc(F)c3)C2=O)o1` as the compound, how does the Potency read?
A: active: 0.708 µM

Q: Which Potency does the source give for `O=C(O)c1cc(-c2ccc(/C=C3\NC(=O)N(c4ccccc4)C3=O)o2)ccc1Cl` here?
A: active: 50.1 µM

Q: How did the Potency turn out when `COc1ccc(Cc2nnc(SCC(=O)Nc3cc(Cl)ccc3C)[nH]c2=O)cc1` was run?
A: inactive

Q: With `Cc1nc2c(c(=O)n1Cc1ccco1)c1nc3ccccc3nc1n2Cc1ccccc1` as the compound, how does the Potency read?
A: inconclusive [inhibitor, partial curve]

Q: How did the Potency turn out when `COCCCn1c(SCC(=O)OC2CCCCC2)nnc1-c1ccco1` was run?
A: inconclusive [inhibitor, partial curve]

Q: How did the Potency turn out when `COCCNC(=S)Nc1ccc2nc(N3CCCC3)cc(C)c2c1` was run?
A: active: 44.7 µM

Q: Which Potency does the source give for `C=CCCC(=O)N(C)CCO` here?
A: inactive

Q: With `COc1ccc(CN2CCC(C(=O)Nc3ccc(Oc4cccnc4)cc3)CC2)c(C)c1C` as the compound, how does the Potency read?
A: inactive

Q: For `N/C(=N/OCC(=O)Nc1cccc2ccccc12)c1nonc1N`, which Potency is on record?
A: inactive

Q: Which Potency does the source give for `COC(=O)CSc1[nH]c2ccccc2c1[N+](=O)[O-]` here?
A: active: 50.1 µM

Q: With `CCOC(=O)Cn1c(=O)n(-c2cccc(Cl)c2)c2nc(-c3ccccc3Cl)nc(C(N)=O)c21` as the compound, how does the Potency read?
A: inactive

Q: Which Potency does the source give for `COC(=O)c1ccc(CSc2nc3c(cnn3-c3ccc(C)c(C)c3)c(=O)[nH]2)o1` here?
A: inconclusive [inhibitor, partial curve]

Q: For `COc1ccc(OCc2cc(C(=O)NCc3cccc(C)n3)no2)c(Cl)c1`, which Potency is on record?
A: inactive

Q: For `c1ccc(-c2onc(-c3ccco3)c2-c2ccc3c(c2)OCO3)cc1`, which Potency is on record?
A: active: 50.1 µM

Q: Which Potency does the source give for `CC(C)c1cc[n+](-c2nc([O-])sc2C=O)cc1` here?
A: inconclusive [inhibitor, partial curve]

Q: With `O=C(CCN1C(=O)c2ccc([N+](=O)[O-])cc2C1=O)Nc1ccc(O)cc1C(=O)O` as the compound, how does the Potency read?
A: inconclusive [inhibitor, full curve, poor fit]

Q: How did the Potency turn out when `CCOc1ccc(-n2c(O)c(C=NCCN(CC)CC)c(=O)[nH]c2=O)cc1` was run?
A: inconclusive [inhibitor, partial curve]

Q: Which Potency does the source give for `O=C(NCC(=O)N1CCN(S(=O)(=O)c2ccccc2F)CC1)c1ccc(Br)o1` here?
A: inconclusive [inhibitor, full curve]

Q: For `CC(C)C(=O)NC(=S)Nc1c(Cl)ccc2nsnc12`, which Potency is on record?
A: inconclusive [inhibitor, partial curve]

Q: For `CC(C)C(c1nnnn1Cc1ccccc1)N(Cc1ccco1)Cc1cccs1` (stereo not drawn), which Potency is on record?
A: inconclusive [inhibitor, partial curve]

Q: For `O=C(/C=C/N1CCOCC1)c1cc2ccccc2o1`, which Potency is on record?
A: inconclusive [inhibitor, single point]

Q: Which Potency does the source give for `CN1CCN(S(=O)(=O)c2cccc(C(=O)N(Cc3nnc(-c4ccccc4Cl)o3)C3CC3)c2)CC1` here?
A: inconclusive [inhibitor, full curve, poor fit]
